The BET-seq Pho4 binding data (Le et al. 2018)
Some of the results follow. These are noisy estimates, calculated here from bound and input reads.

The sequences below were run against T1, Pho4 (S. cerevisiae) (UniProt P07270) (assay: relative binding free energy (BET-seq); higher = weaker binding). Conditions: reference: library average.
T1 sequence: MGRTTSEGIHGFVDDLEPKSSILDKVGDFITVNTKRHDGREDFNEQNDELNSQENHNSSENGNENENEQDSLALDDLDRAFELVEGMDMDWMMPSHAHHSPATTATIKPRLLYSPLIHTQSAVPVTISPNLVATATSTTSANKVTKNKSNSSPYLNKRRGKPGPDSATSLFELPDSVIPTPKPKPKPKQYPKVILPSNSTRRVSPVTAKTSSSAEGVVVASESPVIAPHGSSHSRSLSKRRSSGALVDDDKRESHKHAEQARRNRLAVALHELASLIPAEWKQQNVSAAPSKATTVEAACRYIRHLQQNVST

Sequence	relative binding free energy
ATTGCCACGTGTGGTT	0.02 kcal/mol
CGTGTCACGTGCATTG	-0.02 kcal/mol
AGTATCACGTGTGAAA	0.25 kcal/mol
TTTTTCACGTGGTTCC	0.26 kcal/mol
GCTGGCACGTGTTTTA	0.02 kcal/mol
TTGGACACGTGTGACT	0.11 kcal/mol
CGGCACACGTGGAGGA	0.12 kcal/mol
GGTCACACGTGGTGCG	0.06 kcal/mol
TCAGTCACGTGAGCGG	0.17 kcal/mol
CGTTTCACGTGGAGCT	0.28 kcal/mol
GTGAGCACGTGGGCAT	-0.19 kcal/mol
ATAAGCACGTGTCGTG	-0.07 kcal/mol
ATCGTCACGTGTTGAA	0.18 kcal/mol
GCTTTCACGTGTTTAT	0.19 kcal/mol
TGTGTCACGTGGGATT	0 kcal/mol
ATTATCACGTGACAGT	0.18 kcal/mol
AAGTTCACGTGGAGGT	0.19 kcal/mol
GGGGACACGTGTGTAG	0.18 kcal/mol
ACGGTCACGTGGTTCT	0.11 kcal/mol
ATTGTCACGTGCCGTT	-0.11 kcal/mol
ATATACACGTGTGGCT	0.16 kcal/mol
TTCATCACGTGGGCTT	0.13 kcal/mol
TATATCACGTGTGGAG	0.26 kcal/mol

Sequence	relative binding free energy
AGGGGCACGTGAGTCG	0.04 kcal/mol
CGTGACACGTGTGGAG	0 kcal/mol
TTTTCCACGTGTCGTG	0.08 kcal/mol
AAGGGCACGTGATTGT	-0.01 kcal/mol
TATTTCACGTGACGGA	0.43 kcal/mol
TTTGCCACGTGGAGGT	0.09 kcal/mol
TATGTCACGTGGGGAG	0 kcal/mol
TATTTCACGTGATAGC	0.26 kcal/mol
CTTTTCACGTGATATG	0.16 kcal/mol
CTGGTCACGTGCTTGG	-0.03 kcal/mol
TGCATCACGTGGAAGG	0.4 kcal/mol
ATATGCACGTGGGAGG	-0.1 kcal/mol
CGGTGCACGTGGACTT	-0.04 kcal/mol
GTAAACACGTGGGACG	0.05 kcal/mol
AAGGGCACGTGGGTCG	-0.26 kcal/mol
TGTGTCACGTGTCATG	0.07 kcal/mol
GGGGCCACGTGCTGGA	-0.2 kcal/mol
TGGTGCACGTGGAGTA	-0.08 kcal/mol
AGGGTCACGTGGTCGA	0.04 kcal/mol
ATAGTCACGTGACGGG	-0.05 kcal/mol
TGCTTCACGTGTTAGG	0.14 kcal/mol
AGAGTCACGTGGGCAT	0.07 kcal/mol
TTATGCACGTGGTTGC	-0.04 kcal/mol

Sequence	relative binding free energy
CGTAGCACGTGGTGTA	-0.12 kcal/mol
GGTGGCACGTGCTGGC	-0.09 kcal/mol
TTGATCACGTGTTGGT	0.15 kcal/mol
CGTTGCACGTGTGATA	0.11 kcal/mol
AAAAACACGTGGGGGT	0 kcal/mol
AAGTGCACGTGTGCGG	-0.12 kcal/mol
TGTGTCACGTGCGGTC	0.04 kcal/mol
GTGAGCACGTGATTTT	0.18 kcal/mol
GAGGTCACGTGGGGAC	0.06 kcal/mol
TTTTGCACGTGGTATA	-0.01 kcal/mol
TAGATCACGTGCGGGG	-0.07 kcal/mol
AAGGGCACGTGGTAGG	-0.11 kcal/mol
TTTTGCACGTGTCCGG	0.15 kcal/mol
TTTAGCACGTGTTCTA	-0.08 kcal/mol
TTGATCACGTGGTGTG	-0.01 kcal/mol
TAAGTCACGTGTATTT	0.14 kcal/mol
AACGTCACGTGGGGCT	-0.06 kcal/mol
TGAGTCACGTGAAGGC	0.26 kcal/mol
AGTCGCACGTGATGTG	-0.02 kcal/mol
GGGGCCACGTGGGTAC	-0.05 kcal/mol
GGAGGCACGTGTGGAT	0.1 kcal/mol
TATCGCACGTGGGTGG	-0.22 kcal/mol
TGCGGCACGTGTATGG	-0.03 kcal/mol

Sequence	relative binding free energy
TATGTCACGTGGCCGT	-0.04 kcal/mol
GATTTCACGTGTAATT	0.46 kcal/mol
GAGAGCACGTGAAAGT	0.37 kcal/mol
TGTCTCACGTGAGGGG	0.25 kcal/mol
GATTGCACGTGCATGG	0 kcal/mol
GGATTCACGTGTTCGG	0.29 kcal/mol
GGTGGCACGTGCTCGG	-0.23 kcal/mol
AAAATCACGTGGCTTG	0.23 kcal/mol
TATGTCACGTGTCGGT	0.11 kcal/mol
GTAAGCACGTGTAGAT	0.16 kcal/mol
TGGTGCACGTGCCGTA	-0.07 kcal/mol
GTCGACACGTGGTTTG	0.09 kcal/mol
TGCGTCACGTGGTTAG	-0.08 kcal/mol
AACAACACGTGTGTGG	0.12 kcal/mol
ATTTACACGTGGATAG	-0.11 kcal/mol
GGGTACACGTGTTGCA	0.11 kcal/mol
GTACTCACGTGTTGTG	0.05 kcal/mol
AGCCGCACGTGGAGTG	0.01 kcal/mol
TTTCACACGTGGTGAT	-0.06 kcal/mol
TTTCACACGTGACGGG	0.31 kcal/mol
TAAGTCACGTGTTCGG	0.03 kcal/mol
GAGGTCACGTGTGTAG	0.09 kcal/mol
GTTTGCACGTGGGCCA	0 kcal/mol

Sequence	relative binding free energy
GAACTCACGTGGGGTG	0.07 kcal/mol
TTCCGCACGTGTGTGG	0.02 kcal/mol
TGTTACACGTGCGGTC	0.16 kcal/mol
TTAGTCACGTGGGTAG	0.03 kcal/mol
TAGTTCACGTGATAAG	0.37 kcal/mol
ATCATCACGTGTGGGT	0.25 kcal/mol
GTGATCACGTGGAGGG	0.16 kcal/mol
TGGGGCACGTGGCTAA	-0.09 kcal/mol
TGAGGCACGTGAGGGT	0.12 kcal/mol
ATATGCACGTGTCTTG	-0.16 kcal/mol
ATGATCACGTGTTCGG	0.24 kcal/mol
AAAGTCACGTGATTGT	0.16 kcal/mol
TAGGACACGTGAGGTG	0.28 kcal/mol
TGGTACACGTGAGTCT	0.33 kcal/mol
TTTAACACGTGCATGT	-0.01 kcal/mol
CGGTACACGTGAGGAG	0.38 kcal/mol
GAAGTCACGTGTTGGT	0.12 kcal/mol
GTGTTCACGTGTATCA	0.17 kcal/mol
TGGCTCACGTGCGGGA	0.22 kcal/mol
TTGGTCACGTGTGGAG	0.19 kcal/mol
TAGTACACGTGTGGGT	0.2 kcal/mol
GGGGGCACGTGTCTTA	-0.12 kcal/mol
GGTGCCACGTGCGGGT	-0.14 kcal/mol
